Measured values: the supplement of paper PMC11417369
± gives the standard deviation of the averaged measurements. Some of the results follow.

The sequences below were run on PfAP2-EXP AP2 domain (GST-tagged) (assay: gcPBM binding intensity (ln(normalized median fluorescence intensity)); higher = stronger DNA binding).
In short: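 GST-fused DNA-binding domains of P. falciparum, expressed in E. coli, were applied at about 25 μg on average for 1 h to an Agilent 4 × 180k array of primer-extended double-stranded 36-bp intergenic genomic probes and negative controls. Binding intensity is the highest Masliner-normalised natural-log median intensity across replicate spots of either probe orientation, measured with Alexa488 anti-GST antibody and a 488 nm scan.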
For “TAATTATTTTAAAAAGTGCATTAAAAGATATTAAAT [GTGCAC_site9694]”, the “gcPBM binding intensity (ln)” value was 8.7 ± 0.21. In the case of “TATATATCTATAAACACACACCAAAATTTGTGCTTT [CACACA_site7448]”, the “gcPBM binding intensity (ln)” value is reported as 8.5 ± 0.35. In the case of “ATATATATATATTATATGCACACGTTAAAATTTCAT [CACACA_site709]”, the “gcPBM binding intensity (ln)” value is reported as 9.69 ± 0.3. With “ATATACTTTAAAGGTTAAGAAAGAAAAAAAAAAAAA [CACACA_negctrl_site956]” the “gcPBM binding intensity (ln)” value was 8.52 ± 0.39. With “ATAAAATGAACAAACACACACACATATATTTATATA [CACACA_site7181]” the “gcPBM binding intensity (ln)” value was 8.69 ± 0.49. For “AAATAAAAAGAAAAGAAAAAGAAAATAAAAAGAGAA [XGTACX_negctrl_site14]”, the “gcPBM binding intensity (ln)” value was 8.82 ± 0.52. With “TGACATAATGTGTGTAGTACATATATCGTTATTTGA [XGTACX_site5152]” the “gcPBM binding intensity (ln)” value was 8.34 ± 0.25. For “TGAATAAATATAAAAGGTACACATATAAATATATAT [XGTACX_site6349]”, the “gcPBM binding intensity (ln)” value was 8.54 ± 0.28. “TATGTAGGTAAAAATTGTACTTTTTTTTTAATATTT [XGTACX_site2303]” was tested, and the “gcPBM binding intensity (ln)” value was 8.34 ± 0.35. For “TAACTCTATTTTTTTGCATGCTGAAGCTATGAGTTT [TGCATGCA_site821]”, the “gcPBM binding intensity (ln)” value was 9.34 ± 0.47. “CACAAAAATAGACACACACACATATAAATAAATATA [CACACA_site6598]” was tested, and the “gcPBM binding intensity (ln)” value was 8.62 ± 0.47. “ATAAAAATAAAATAAGGTACAGACGAAAAAATTGAA [XGTACX_site5097]” was tested, and the “gcPBM binding intensity (ln)” value was 9.07 ± 0.47. “TATATATTTCATAATACACACGAAAAAAAAAAAAAA [CACACA_site8972]” was tested, and the “gcPBM binding intensity (ln)” value was 8.7 ± 0.41. In the case of “ATAATATTATGTGTGAATATATCTTTAAAAAGGATA [GTGCAC_negctrl_site15]”, the “gcPBM binding intensity (ln)” value is reported as 8.4 ± 0.41. With “ATATATATTATATAGTGTACCTATGTATAATAATAT [XGTACX_site1683]” the “gcPBM binding intensity (ln)” value was 8.41 ± 0.35. “TATATATATAAATACACACACACCGTCCGTGTTAAA [CACACA_site5623]” was tested, and the “gcPBM binding intensity (ln)” value was 8.855 ± 0.049. With “ATATATATATATATATGTACACATATTATAAAAAAA [XGTACX_site8644]” the “gcPBM binding intensity (ln)” value was 10.2 ± 0.32. In the case of “TATAAAATAAAAGTAAATATATATATATATATATAT [TGCATGCA_negctrl_site208]”, the “gcPBM binding intensity (ln)” value is reported as 10.1 ± 0.3. In the case of “ATATATTATAATGATACACACAAGAAATAAAATTAC [CACACA_site3095]”, the “gcPBM binding intensity (ln)” value is reported as 8.65 ± 0.14. With “TTCTAGAAAACTGATCGTACAAATAAATATAGACAC [XGTACX_site2808]” the “gcPBM binding intensity (ln)” value was 8.88 ± 0.28. In the case of “AATGCATACACATATTGTACTAAGCCATACAACACA [XGTACX_site305]”, the “gcPBM binding intensity (ln)” value is reported as 8.69 ± 0.42. For “AAAATAGGGATCACGTGTACATATAAAGTGACATAC [XGTACX_site8190]”, the “gcPBM binding intensity (ln)” value was 9.16 ± 0.49. With “TTTGACATACCTCTTGCATGTGAAAAACTTTTCGCT [TGCATGCA_site364]” the “gcPBM binding intensity (ln)” value was 8.87 ± 0.3. In the case of “ATATATAATATTTATTGTACTATTTTATTTTTATAA [XGTACX_site705]”, the “gcPBM binding intensity (ln)” value is reported as 8.41 ± 0.27. In the case of “AAAAAAGACCATGTTAGTACATAAGATTTTTTTCAT [XGTACX_site4298]”, the “gcPBM binding intensity (ln)” value is reported as 8.31 ± 0.41. For “AATACGTTATTATTTTGTACATATAAATAATAAGTT [XGTACX_site815]”, the “gcPBM binding intensity (ln)” value was 8.43 ± 0.37. With “AACATACGAATATTCACACATAAATATATAAATCGC [CACACA_site4672]” the “gcPBM binding intensity (ln)” value was 8.64 ± 0.42. For “ATTTCTATTTGGGTTAGTACATATAAGTCTATTTTC [XGTACX_site3234]”, the “gcPBM binding intensity (ln)” value was 8.62 ± 0.42. In the case of “ACTCTTTTAACGCAAAGTACTTTTTAAAATATTTCG [XGTACX_site7534]”, the “gcPBM binding intensity (ln)” value is reported as 9.04 ± 0.4. “TATTATATATATATCACACATATATTCATGTACATA [CACACA_site5432]” was tested, and the “gcPBM binding intensity (ln)” value was 8.63 ± 0.45. In the case of “TTTTTTTTTTCTTTTTGTACATATTCATAACAAGTA [XGTACX_site2784]”, the “gcPBM binding intensity (ln)” value is reported as 8.55 ± 0.44. “TATATAATCGAGTGCACACACAAAAAAAAAGTGAAC [CACACA_site1483]” was tested, and the “gcPBM binding intensity (ln)” value was 9.18 ± 0.49. “AGATGATATACGTAAACACACAAATAAAAAAAATTT [CACACA_site3327]” was tested, and the “gcPBM binding intensity (ln)” value was 8.63 ± 0.61. With “ACAAAAAAATAAGGTGCACACAAAAAAAAAAAAAAA [CACACA_site8171]” the “gcPBM binding intensity (ln)” value was 9.02 ± 0.11. “ATATAGCATATAATTTGTACACAGGCCATACCTGAA [XGTACX_site533]” was tested, and the “gcPBM binding intensity (ln)” value was 8.48 ± 0.38. With “TTTTTTTTTTTTTGATGTACTTATTTAATAAGATAT [XGTACX_site376]” the “gcPBM binding intensity (ln)” value was 8.43 ± 0.45. For “TATATGGCATATTTCACACACACATAATGAATATTA [CACACA_site9181]”, the “gcPBM binding intensity (ln)” value was 8.46 ± 0.51. For “GAGTTCAGTTTTTGTTGTACTTATTCTTAATATGTC [XGTACX_site6083]”, the “gcPBM binding intensity (ln)” value was 8.68 ± 0.3. In the case of “ATCCAAAAAATTAATGCATGCGCAAAAAATAGCTTA [TGCATGCA_site615]”, the “gcPBM binding intensity (ln)” value is reported as 8.74 ± 0.47. With “TGTCCTTATTTGCACACACACATATAAGAAATTTAA [CACACA_site7485]” the “gcPBM binding intensity (ln)” value was 8.97 ± 0.29. In the case of “AAAAAAAAAACATACACACACATATATATATATATG [CACACA_site1586]”, the “gcPBM binding intensity (ln)” value is reported as 8.64 ± 0.32. With “TTTGTTTTATCTTATATGCACACGATAAAAAAAAAA [CACACA_site2673]” the “gcPBM binding intensity (ln)” value was 8.48 ± 0.3. In the case of “ATTATATGTAACACGTGTACCTATTTATGTATGCTT [XGTACX_site5748]”, the “gcPBM binding intensity (ln)” value is reported as 8.87 ± 0.33. “GATATATAAACATATACACACAAAAACATATTTATA [CACACA_site6734]” was tested, and the “gcPBM binding intensity (ln)” value was 8.49 ± 0.41.
